# Data reported in PubChem BioAssay (NCATS).
# “And” between values parts separate entries of the source, which are not always exact repeats. Equal entries are not always repeated. The list shows a part of the results. Further columns of the screen follow, without active or inactive calls. The list favours compounds with an active or inconclusive main result. For some assays here: Potencies come from curve fits of mixed quality, noted in brackets.
# Columns and labels:
# [1] = qHTS Assay for Lipid Storage Modulators (AID 1519); conditions: Drosophila S3 cells, BODIPY lipid droplet/cell ratio, laser cytometry, cells loaded with oleic acid
# How it was run: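 Cells seeded at 5,000 per well were treated with compounds over a concentration series and loaded with oleic acid (400 uM, as added). Lipid droplet fluorescence (488 nm excitation, 500-530 nm channel) was read by laser-scanning cytometry and normalized to 20 uM Triacsin C.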
# [2] = qHTS assay for small molecule antagonists of peroxisome proliferator-activated receptor gamma signaling (AID 588537); conditions: HEK293 PPARg-UAS-bla, beta-lactamase ratio, antagonist mode; measured here: W460 blue channel
# How it was run: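 Antagonist-mode β-lactamase reporter screen run as a titration series. HEK293 PPARγ-UAS-bla cells are stimulated with rosiglitazone (50 nM final) for 16 h, then CCF4 is read at 460/530 nm. Data are scaled between DMSO and rosiglitazone and fitted to the Hill equation.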
# [3] = qHTS Validation Assay to Find Inhibitors of Chronic Active B-Cell Receptor Signaling (AID 485345); conditions: ABC-DLBCL cells, chronic BCR signaling reporter
# How it was run: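 Read-out: ratio of filter-corrected green (IkappaBalpha fusion) to red (native) luciferase signal in doxycycline-induced TMD8 cells after 4 h at 37C. Titration spanned 46 uM–3 nM; Data were normalised to basal cells and 10 uM MG-132 wells.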
# [4] = Nrf2 qHTS screen for inhibitors: Validation (AID 493153); conditions: A549 ARE-Fluc reporter, 18-24 h; AC50: CellTiter-Fluor fluorescence read, measured here: cytotoxicity CellTiter-Fluor AC50; viability change: measured here: cytotoxicity max response
# How it was run: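 A549 ARE_Fluc, 5% FBS OPTI-MEM; cpd titration, 18-24 h, 37°C/5% CO2. Read 1: CellTiter-Fluor (Ex 405/Em 525), cytotox. Read 2: luciferase lum, Nrf2 activity.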
# [5] = qHTS Assay for Inhibitors of PDE-IV (AID 607); conditions: HEK293 ACTOne CNG channel cells, membrane potential fluorescence; measured here: parental cell counter-screen;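 further: parental cells stimulated with forskolin 10 µM plus RO 20-1724 100 µM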
# How it was run: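 Live HEK293 cells with a modified cyclic nucleotide-gated (CNG) channel report intracellular cAMP via membrane-potential dye fluorescence (ex 535/em 590 nm). Endogenous PDE-IV was targeted. Compounds were tested at up to 22.9 uM final; RO 20-1724 100 uM served as control.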
# [6] = qHTS assay for small molecule antagonists of vitamin D receptor signaling (AID 588541); conditions: HEK293T VDR-UAS-bla, beta-lactamase ratio, antagonist mode; measured here: W460 blue channel (cell viability);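 further: cells exposed to compound for 16 h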
# [7] = qHTS assay for small molecule antagonists of peroxisome proliferator-activated receptor delta signaling (AID 588535); conditions: HEK293T PPARd-UAS-bla, beta-lactamase FRET ratio, 18 h; 460 nm channel;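 further: cells co-treated with a PPAR-delta agonist as stimulator during compound exposure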
# How it was run: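 Titrations were run on PPAR-delta-UAS-bla HEK293T cells in charcoal/dextran-stripped serum, incubated 18 h at 37 C. CCF4 fluorescence (460/530 nm) after 2 h RT; Hill equation yields IC50 and maximal response.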
# [8] = qHTS assay for small molecule agonists of retinoid X receptor alpha signaling (AID 588544); conditions: HEK293T RXRa-UAS-bla, beta-lactamase reporter, 18 h; 530 nm emission
# [9] = qHTS assay for small molecule antagonists of retinoid X receptor alpha signaling (AID 588546); conditions: HEK293T RXRa-UAS-bla, beta-lactamase ratio, antagonist mode; measured here: W530 green channel, cytotoxicity proxy;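 further: cells stimulated with 9-cis-retinoic acid as agonist; on the % scale 0 is the no-effect control and ±100 the full control effect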
# How it was run: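 Beta-lactamase reporter inhibition, read as CCF4 fluorescence ratio (ex 405, em 460/530 nm) after 2 h at RT. HEK293T UAS-bla cells, 2500/well, were stimulated with 9-cis-RA at 500 or 100 nM final alongside test compound for 18 h at 37 C.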
# [10] = measured here: cell count channel max response
# [11] = measured here: cell number channel AC50
# [12] = measured here: lipid (BODIPY) channel AC50
# [13] = measured here: lipid channel max response
# [14] = measured here: CBR control luciferase (viability counter)
# Tags describe the fitted curve by direction and shape.
smiles,measurement,setting,value
CCCCC1C(=O)N(c2ccccc2)N(c2ccccc2)C1=O,max response,[1]; [10],36.9% and 51.5%
same,AC50,[1]; [11],"31.6 µM [rising, single point]"
same,AC50,[1]; [12],"31.6 µM [rising, single point]"
same,max response,[1]; [13],53.1% and 55.1%
same,AC50,[2],"70.8 µM [rising, single point]"
CC(C)(C=O)Cc1cc(C(C)(C)C)c(O)c(C(C)(C)C)c1,max response,[1]; [10],16.7% and -75.4%
same,AC50,[1]; [11],"7.94 µM [rising, partial curve, poor fit] and 44.7 µM [falling, partial curve, poor fit]"
same,AC50,[1]; [12],"6.31 µM [rising, full curve, poor fit] and 44.7 µM [falling, partial curve, poor fit]"
same,max response,[1]; [13],6.52% and -75.8%
same,AC50,[3]; [14],"18.4 µM [rising, single point]"
C#CCN(C)CCCOc1ccc(Cl)cc1Cl,max response,[1]; [10],4.31%
same,AC50,[1]; [11],"11.2 µM [falling, partial curve, poor fit]"
same,AC50,[1]; [12],"11.2 µM [falling, partial curve, poor fit]"
same,max response,[1]; [13],3.96%
same,AC50,[3]; [14],"1.03 µM [rising, partial curve]"
CN(C(=O)CCCOc1ccc2[nH]c(=O)ccc2c1)C1CCCCC1,max response,[1]; [10],67% and 39.6%
same,AC50,[1]; [11],"14.1 µM [rising, partial curve, poor fit] and 22.4 µM [falling, single point]"
same,AC50,[1]; [12],"15.8 µM [rising, partial curve, poor fit]"
same,max response,[1]; [13],90.5% and 30.8%
same,AC50,[3]; [14],"11.6 µM [rising, partial curve]"
same,viability change,[4],-0.395%
Cc1cccc(CNc2ncncc2-c2ccccc2Cl)c1,AC50,[5],"15.8 µM [rising, single point]"
same,max response,[1]; [10],34.6%
same,AC50,[1]; [11],"5.62 µM [rising, full curve, poor fit]"
same,AC50,[1]; [12],"3.16 µM [rising, full curve, poor fit]"
same,max response,[1]; [13],38.2%
CN(CCOc1ccc(C[C@H](Nc2ccccc2C(=O)c2ccccc2)C(=O)O)cc1)c1ccccn1,AC50,[5],"12.6 µM [rising, partial curve, poor fit] and 15.8 µM [rising, partial curve, poor fit]"
same,max response,[1]; [10],87% and -8.52%
same,AC50,[1]; [11],"25.1 µM [rising, partial curve] and 316 nM [falling, full curve, poor fit]"
same,AC50,[1]; [12],"31.6 µM [rising, partial curve] and 355 nM [falling, full curve, poor fit]"
same,max response,[1]; [13],111% and -8.88%
same,AC50,[6],"7.08 µM [rising, full curve, poor fit]"
CC/C=C\C/C=C\C/C=C\CCCCCCCC(=O)O,max response,[1]; [10],32.6%
same,AC50,[1]; [11],"14.1 µM [rising, partial curve, poor fit]"
same,AC50,[1]; [12],"14.1 µM [rising, partial curve, poor fit]"
same,max response,[1]; [13],38.8%
same,max response,[7],76.4%
same,max response,[8],37.7%
NC(=O)N1c2ccccc2C=Cc2ccccc21,max response,[1]; [10],27.8% and 48.8%
same,AC50,[1]; [11],"35.5 µM [rising, single point]"
same,AC50,[1]; [12],"39.8 µM [rising, single point] and 35.5 µM [rising, single point]"
same,max response,[1]; [13],56.4% and 48.6%
same,max response,[7],1.39%
Cc1c(C(=O)O)c(O)cc2c1C(=O)c1c(O)c([C@H]3O[C@H](CO)[C@@H](O)[C@H](O)[C@H]3O)c(O)c(O)c1C2=O,max response,[1]; [10],28.9%
same,AC50,[1]; [11],"10 µM [rising, full curve, poor fit]"
same,AC50,[1]; [12],"12.6 µM [rising, partial curve, poor fit]"
same,max response,[1]; [13],12%
same,AC50,[2],"70.8 µM [rising, single point]"
CCCCCCN(CCCCCC)C(=O)Cc1c(-c2ccc(F)cc2)[nH]c2ccccc12,AC50,[5],"12.6 µM [rising, partial curve, poor fit] and 3.16 µM [rising, full curve]"
same,max response,[1]; [10],83.2% and 57.1%
same,AC50,[1]; [11],"3.55 µM [rising, full curve]"
same,AC50,[1]; [12],"2.51 µM [rising, full curve]"
same,max response,[1]; [13],90.2% and 54.5%
same,viability change,[4],-6.96%
CCOc1ccc2c(c1)C(C)=CC(C)(C)N2,max response,[1]; [10],34.6%
same,AC50,[1]; [11],"14.1 µM [rising, partial curve, poor fit]"
same,AC50,[1]; [12],"15.8 µM [rising, partial curve]"
same,max response,[1]; [13],44.6%
same,max response,[7],262% and 314%
same,AC50,[2],"44.7 µM [rising, partial curve]"
same,max response,[8],110% and 43.5%
same,max response,[9],122% and 47.6%
O=c1onc2cnc3ccccc3n12,max response,[1]; [10],87.2%
same,AC50,[1]; [11],"14.1 µM [rising, partial curve]"
same,AC50,[1]; [12],"3.98 µM [rising, partial curve]"
same,max response,[1]; [13],82.4%
same,AC50,[3]; measured here: CBG/CBR ratio read-out,"23.1 µM [falling, single point]"
same,AC50,[3]; [14],"16.4 µM [falling, single point]"
